Experimental data from article PMC4336329 (PLoS ONE, 2015).
Among all 310,000 compounds or so, about 14,000 (4.5%) showed an effect of 50% or more. The effect is printed as a negative number. This is one part of the list.

target: human ether-à-go-go-related gene (hERG) potassium channel (human, UniProt Q12809); assay: primary screen, population patch clamp on CHO cells stably expressing hERG
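Also: peak tail current of the secondary pulse compared with the same well before compound.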

Chain of human ether-à-go-go-related gene (hERG) potassium channel (Q12809 whole entry, looked up): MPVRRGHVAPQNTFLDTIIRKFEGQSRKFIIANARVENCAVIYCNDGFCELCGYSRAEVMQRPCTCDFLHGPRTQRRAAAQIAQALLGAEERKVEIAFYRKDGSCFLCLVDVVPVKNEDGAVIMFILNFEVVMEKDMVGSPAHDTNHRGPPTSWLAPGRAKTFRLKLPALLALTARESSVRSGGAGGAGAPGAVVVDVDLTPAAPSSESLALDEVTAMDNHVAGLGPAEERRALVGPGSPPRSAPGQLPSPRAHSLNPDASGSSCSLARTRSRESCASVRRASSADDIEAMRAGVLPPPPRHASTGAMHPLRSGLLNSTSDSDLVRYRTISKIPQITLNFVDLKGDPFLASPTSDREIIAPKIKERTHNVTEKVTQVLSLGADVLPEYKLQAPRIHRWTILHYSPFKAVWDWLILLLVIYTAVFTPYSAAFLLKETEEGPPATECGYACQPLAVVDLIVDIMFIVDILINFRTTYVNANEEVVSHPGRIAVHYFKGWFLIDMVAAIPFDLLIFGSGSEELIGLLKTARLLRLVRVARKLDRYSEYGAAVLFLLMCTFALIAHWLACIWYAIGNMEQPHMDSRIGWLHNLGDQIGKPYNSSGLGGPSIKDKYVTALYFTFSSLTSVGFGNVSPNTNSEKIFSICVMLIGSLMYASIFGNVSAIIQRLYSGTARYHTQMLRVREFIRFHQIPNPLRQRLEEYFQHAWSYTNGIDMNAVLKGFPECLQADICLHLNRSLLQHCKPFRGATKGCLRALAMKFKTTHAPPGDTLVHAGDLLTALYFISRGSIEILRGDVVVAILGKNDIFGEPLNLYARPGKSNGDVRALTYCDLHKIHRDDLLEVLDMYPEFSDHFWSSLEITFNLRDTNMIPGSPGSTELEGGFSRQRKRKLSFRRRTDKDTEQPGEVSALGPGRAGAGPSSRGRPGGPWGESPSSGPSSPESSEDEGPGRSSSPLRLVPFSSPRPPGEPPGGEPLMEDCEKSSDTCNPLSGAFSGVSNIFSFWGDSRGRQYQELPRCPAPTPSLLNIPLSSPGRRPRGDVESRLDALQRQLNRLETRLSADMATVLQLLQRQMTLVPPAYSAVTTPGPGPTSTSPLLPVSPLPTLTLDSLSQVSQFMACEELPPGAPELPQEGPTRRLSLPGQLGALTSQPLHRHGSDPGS

SMILES	hERG current change (%, negative = inhibition) at 10uM [%]
CCC(CC)NC(=O)COC(=O)CCC(=O)c1cccs1	-5.75
COCCn1c(SCc2nc(N)nc(Nc3ccccc3C)n2)nc2ccccc2c1=O	-35.3
Cl.NCCSSCCN	5.97
CCOC(=O)CSC1=C(C#N)C(c2ccccc2)C(C(C)=O)=C(C)N1 (centres unmarked)	-10.6
CN1CCc2c(C#N)c(Cl)nc(Cl)c2C1	10.4
CCCCNC(=O)c1ccc2c(c1)ncn2C1CCCC1	-16.7
CC(=O)/C(=N\Nc1ccccc1)Oc1ccc(Br)cc1	6.11
CCn1cc(C(=O)NCCc2ccc(OC)cc2)c(=O)c2ccc(C)nc21	7.61
COc1ccc(O)c(C(C)(C)C)c1	-4.9
CCC(CC)c1nnc(NC(=O)CCc2ccccc2OC)s1	2.09
COc1cc(/C=C/C(=O)OCC(=O)c2c[nH]c3ccccc23)ccc1OC(F)F	10
O=C(CSc1nnnn1-c1ccccc1)NCc1cccs1	1.6
COc1ccc(/C=C/c2nc3ccccc3n2Cc2ccccc2OC)cc1	-6.12
CC(=O)c1c(C)[nH]c(C(=O)OCc2cc(=O)n3cc(Br)ccc3n2)c1C	-3.69
COc1ccc(CCNC(=O)c2c(O)c3cccc4c3n(c2=O)CC4)cc1OC	-5.2
COc1cc(/C=N/Nc2ccc([N+](=O)[O-])cn2)cc(OC)c1O	5.77
Cc1cc(C)cc(NC(=O)Cn2nnc(C(=O)NCCc3ccccc3)c2N)c1	8.03
CCc1ccc(N2CC(C(=O)Nc3ccc(S(=O)(=O)Nc4ncccn4)cc3)CC2=O)cc1 (centres unmarked)	1.26
COCCCNC(=O)CCSc1ccc(Cl)cc1	-8.9
Cc1ccc(S(=O)(=O)NCc2ccccc2)cc1C(=O)NC1CCCCC1	15.9

SMILES	hERG current change (%, negative = inhibition) at 10uM [%]
COC(=O)c1ccc(NS(=O)(=O)c2cc(C)ccc2OC)cc1	8.37
O=C(CNc1ccc(Br)cc1)c1ccc(O)cc1	-2.24
O=C(CSc1nc2c([nH]c3ccccc32)c(=O)n1-c1ccc(F)cc1)NCc1ccco1	-8.03
Clc1ccccc1Cc1noc(CN2CCN3CCCC3C2)n1 (centres unmarked)	-9.7
CC(C)(C)NC(=O)NC(=O)CN1CCN(c2ccc(O)cc2)CC1	9.23
C=CCN1C(=O)CSc2ccc(C(=O)N3CCC(C)CC3)cc21	-9.08
CC(=O)Nc1ccc(NC(=O)C(C)OC(=O)CCCc2c[nH]c3ccccc23)cc1 (centres unmarked)	7.68
CCOC(=O)c1cc(NC(=O)c2ccoc2C)cc(C(=O)OCC)c1	-10.5
C=CCn1c(=O)/c(=C/c2ccc(F)cc2)s/c1=C(\C#N)c1nnc2n1CCCCC2	-59.9
O=C(CCNS(=O)(=O)c1cccc2nsnc12)NCc1ccccc1	1.36
CC(C)NC(=O)NC(=O)COC(=O)c1ccc(S(=O)(=O)NCc2ccco2)cc1	17.1
CCCS(=O)(=O)N1CCC(C(=O)NCCCOC)CC1	-0.339
COc1ccccc1CCC(=O)N(C)C1CCCN(Cc2ccccc2F)C1 (centres unmarked)	-28
CC1(C)c2[nH]c3ccccc3c2C[C@@H]2C(=O)N(Cc3ccccc3)C(=O)N21	6.84
CCOC(=O)Cc1csc(NC(=O)CS(=O)(=O)Cc2ccccc2)n1	-5.06
c1n[nH]c(NCc2ccc3c(c2)OCO3)n1	1.07
CCOc1ccccc1NC(=O)C1C2C=CC(C2)C1C(=O)O (centres unmarked)	6.03
Cc1ccsc1C(=O)C1CCCN(Cc2sc(N(C)C)nc2Cl)C1 (centres unmarked)	6.85
O=C(COC(=O)c1c(Cl)cccc1Cl)NC1CCCCC1	-8.93
Cc1c(C(=O)CN2CCSCC2)c2ccccc2n1C	-21.7

SMILES	hERG current change (%, negative = inhibition) at 10uM [%]
NNC(=O)c1cc(-c2ccc(N)cc2)nc2ccc(Br)cc12	15.6
COCCCNC(=O)CC(NS(=O)(=O)c1ccc(Cl)cc1)c1ccc(OC)cc1 (centres unmarked)	-0.0404
Cc1ccccc1C(=O)NC(=S)Nc1sc2c(c1C#N)CCC(C)C2 (centres unmarked)	14.2
Cc1ccccc1OCC(O)Cn1c(NCc2ccco2)nc2c1c(=O)n(C)c(=O)n2C (centres unmarked)	-52.1
COc1cccc(-c2c(-c3cc(OC)cc(OC)c3)n(C)c3ccc(Br)cc23)c1	7
CCSC1=NN1c1cc(C)nc(N)n1	10.7
COc1ccc(Oc2cc(C(F)(F)F)nc(N(C)C)n2)cc1	5.69
C=CCNC(=O)c1cc(-c2ccccc2O)on1	8.16
COc1cccc(C(=O)Nc2nnc(-c3ccccc3)s2)c1OC	4.52
COc1ccccc1CNc1nc2nc(C)c(Cl)c(=O)n2[nH]1	-2.39
COc1cccc2c1OC1(C)CC2NC(=O)N1c1cccc(C(=O)N2CCN(c3ccccn3)CC2)c1 (centres unmarked)	15.3
O=C(O)CCN1C(=O)C2C3c4ccccc4C(c4ccccc43)[C@@H]2C1=O (some centres unmarked)	-3.66
CCc1cccc(NC(=S)N(CCN(C)C)C2CCN(C(C)C)CC2)c1	-6.44
COc1cccc(CC(=O)n2nc(N)c3cc4ccc(OC)cc4nc32)c1	11.2
O=C(CCc1nnc(C2CCCCC2)o1)N1CCC(Oc2cccnc2)CC1	5.96
O=C(COC(=O)Cc1c[nH]c2ccccc12)Nc1ccccc1	-3.68
Cc1ccc(CNC(=O)[C@@H](NC(=O)Cc2ccccc2)C(C)C)cc1	6.89
COc1ccc(CNC(=O)COC(=O)C2CCC(C(C)(C)C)CC2)cc1 (centres unmarked)	6.01
Cc1cc(=O)nc2c3ccccc3n(C(C)C(=O)NCCN3CCOCC3)n12 (centres unmarked)	15.2
